# Assay results from article PMC4336329 (PLoS ONE, 2015).
# The whole screen tested about 310,000 compounds, of which about 2,200 (0.71%) showed an effect of 50% or more. The effect is printed as a negative number. This is one part of the list.
# Biological target: human ether-à-go-go-related gene (hERG) potassium channel (human, UniProt Q12809)
# Test: primary screen, population patch clamp on CHO cells stably expressing hERG
# Chain of human ether-à-go-go-related gene (hERG) potassium channel (Q12809 whole entry, looked up): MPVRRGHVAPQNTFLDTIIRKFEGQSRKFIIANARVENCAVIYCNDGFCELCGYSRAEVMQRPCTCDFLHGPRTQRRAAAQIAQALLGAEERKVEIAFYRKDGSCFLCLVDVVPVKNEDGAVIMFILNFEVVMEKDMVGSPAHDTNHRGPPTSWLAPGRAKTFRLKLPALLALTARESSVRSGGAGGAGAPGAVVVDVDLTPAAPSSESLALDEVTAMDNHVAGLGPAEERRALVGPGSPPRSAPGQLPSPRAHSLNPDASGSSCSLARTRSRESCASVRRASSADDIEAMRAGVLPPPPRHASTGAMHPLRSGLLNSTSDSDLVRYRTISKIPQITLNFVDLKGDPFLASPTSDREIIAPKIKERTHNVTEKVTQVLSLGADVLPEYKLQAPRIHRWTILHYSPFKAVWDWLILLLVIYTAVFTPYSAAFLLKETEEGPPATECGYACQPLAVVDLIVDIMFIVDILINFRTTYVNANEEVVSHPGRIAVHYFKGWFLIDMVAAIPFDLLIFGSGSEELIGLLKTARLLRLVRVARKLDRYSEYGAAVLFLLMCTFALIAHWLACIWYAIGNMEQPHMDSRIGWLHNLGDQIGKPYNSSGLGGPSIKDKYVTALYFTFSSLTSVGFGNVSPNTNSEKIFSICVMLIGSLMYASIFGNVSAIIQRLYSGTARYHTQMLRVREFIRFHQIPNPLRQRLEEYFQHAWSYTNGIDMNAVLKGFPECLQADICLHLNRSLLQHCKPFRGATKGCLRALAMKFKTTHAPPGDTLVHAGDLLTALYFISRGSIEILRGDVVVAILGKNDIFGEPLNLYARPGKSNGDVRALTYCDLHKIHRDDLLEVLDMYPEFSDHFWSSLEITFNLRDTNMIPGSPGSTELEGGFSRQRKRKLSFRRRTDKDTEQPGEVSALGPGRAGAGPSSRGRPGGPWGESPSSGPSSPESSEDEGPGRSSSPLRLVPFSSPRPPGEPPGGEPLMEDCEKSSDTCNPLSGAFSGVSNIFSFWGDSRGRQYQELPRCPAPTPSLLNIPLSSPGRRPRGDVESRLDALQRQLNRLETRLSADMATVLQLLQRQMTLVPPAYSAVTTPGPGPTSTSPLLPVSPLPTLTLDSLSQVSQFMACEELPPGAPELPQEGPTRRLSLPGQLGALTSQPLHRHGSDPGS
row,Structure (SMILES),"hERG current change (%, negative = inhibition) at 1uM [%]"
1,COc1ccccc1NC(=S)N/N=C/c1ccc(O)cc1,7.59
2,CCC(C)c1ccccc1N1CC(C(=O)NCCCn2nc(C)cc2C)CC1=O (stereo not drawn),10.6
3,CCOC(=O)c1c(C)n(C)c2ccc(OCC(O)Cn3nc(C)cc3C)cc12 (stereo not drawn),13
4,O=C(Nc1cccnc1)/C(N=Nc1cccnc1)=C(\O)c1ccccc1,-7.7
5,COc1cccc(-c2nc(CS(=O)(=O)CC(=O)NC3CCCC3)c(C)o2)c1,10.5
6,Cc1cccc(N2CCN(C(=O)c3ccc(N4CCCC4=O)cc3)CC2)c1C,-9.62
7,Cc1nc(N2C(=O)C(=O)/C(=C(/O)c3ccccc3)C2c2ccco2)sc1C (stereo not drawn),8.66
8,COc1cccc(/C=N\n2c(C)nnc2C)c1OC,-0.171
9,NC(=O)CC(NC(=O)Cc1cccc2ccccc12)c1ccc(NCc2ccc(F)cc2)c([N+](=O)[O-])c1 (stereo not drawn),-4.48
10,Cc1ccc(NC(=O)COc2ncnc3ccccc23)cc1S(=O)(=O)N1CCOCC1,6.13
11,Oc1ccc(O)cc1,15.8
12,O=C(O)c1cc(-c2c[nH]c3ccccc23)nc2ccc3ccccc3c12,-1.42
13,O=C(O)CC1(Cc2nc(-c3cccs3)no2)CCCC1,9.46
14,COc1ccc(CN2CCC(n3nccc3NC(=O)CCOc3ccccc3)CC2)cc1C,-16.2
15,O=C(c1ccccc1)n1c(=O)c(F)cn(COCCBr)c1=O,12.4
16,CCn1c(CNC(=O)c2ccccc2F)cc2ccccc21,13.6
17,COc1ccc(-c2c(C)nc3c(-c4ccccn4)cnn3c2N)cc1,11.1
18,O=C(CCN1CCCC1=O)NC1CCCc2c1cnn2-c1ccc(F)cc1F (stereo not drawn),1.67
19,CSc1cccc(NC(=O)CN2C(=O)COc3ccc(S(=O)(=O)N4CCOCC4)cc32)c1,15.4
20,COC(=O)C1=C(C(=O)OC)SC2(S1)C(C(=O)OC)=C(C(=O)OC)SC1=C2c2cc(C)cc(C)c2NC1(C)C,19.8
21,CN(C)C(Cc1ccccc1)C(=O)c1ccccc1.Cl (stereo not drawn),7.28
22,CCOC(=O)CSc1nc2ccccc2c(=O)n1-c1ccc(C)cn1,12.3

row,Structure (SMILES),"hERG current change (%, negative = inhibition) at 1uM [%]"
1,CC/C(=N\NC(=O)c1ccncc1)C12CC3CC(CC(C3)C1)C2,11.3
2,CC(Sc1nnc(-c2ccc(Cl)cc2Cl)n1Cc1ccccc1)C(=O)Nc1nccs1 (stereo not drawn),5.78
3,N#Cc1c(-c2c(Cl)cccc2Cl)noc1/C=C/Nc1ccc(C(=O)O)cc1,3.87
4,Cc1ccc(NC(=O)C2CCCC2)c(Br)c1,22.1
5,Cc1noc(C)c1S(=O)(=O)Nc1ccc(C(=O)Nc2ccc(OC(F)(F)F)cc2)cc1,9.96
6,COc1cccc(OCc2cc(C(=O)N3CCN(C(C)=O)CC3)no2)c1,7.61
7,CCCCCCC1CCC(C(=O)NC(CCSC)C(=O)NC(C(=O)OC)C(C)C)CC1 (stereo not drawn),6.91
8,CCn1c(SC)nnc1-c1ccc(S(=O)(=O)N2CCCCC2)cc1,-1.45
9,O=C(O)CCc1nc(-c2ccccc2)no1,17
10,Clc1ccc(Cl)c(Oc2ccc(Oc3nc(Cl)ccc3Cl)cc2)n1,18.3
11,CCOc1ccc(CCNC(=O)COC(=O)COc2ccc(C(=O)CC)cc2)cc1OCC,13.4
12,CC(/C=C/c1ccccc1)=N/NC(=O)c1cccc(Br)c1,12.6
13,CCN1CCN(Cc2c(O)ccc3c2O/C(=C\C=C\c2ccccc2OC)C3=O)CC1,-4.56
14,CCc1ccc(NC(=O)N(Cc2cccnc2)Cc2ccco2)cc1,-22.4
15,COc1ccc(Oc2coc3cc(OC(=O)N4CCOCC4)ccc3c2=O)cc1,-11.9
16,CN(C)S(=O)(=O)c1cccc(NC(=O)COC(=O)CNC(=O)c2ccccc2F)c1,4.65
17,CC(Oc1cccc(Cl)c1)C(=O)Nc1ccc(S(=O)(=O)NC2=NCCCCC2)cc1 (stereo not drawn),0.377
18,Cc1ccc(OCC(=O)NC(C)c2ccccc2)c([N+](=O)[O-])n1 (stereo not drawn),9.95
19,COCC(=O)N1CCC(Oc2ccc(C(=O)NCCCn3cccn3)cc2)CC1,10.6
20,C=C1C(C(=O)Nc2ccccc2)C1C(=O)Nc1ccccc1 (stereo not drawn),-4.78
21,COCCn1c(SCC(=O)Nc2ccc3[nH]c(=O)[nH]c3c2)nc2ccccc2c1=O,10.7
22,COc1cc(C(=O)N[C@@H](C)C(=O)NCc2ccco2)cc(OC)c1OC,16.3

row,Structure (SMILES),"hERG current change (%, negative = inhibition) at 1uM [%]"
1,COc1ccc(OC)c(S(=O)(=O)N2CCCc3ccccc32)c1,3.74
2,O=C(O)COc1ccccc1/C=N/NC(=O)CSc1nc2ccccc2n1Cc1ccccc1Cl,6.39
3,Clc1ccc2c(N3CCNCC3)ccnc2c1,-15.4
4,COc1ccc(CCNC(=S)NC(=O)c2cccc([N+](=O)[O-])c2)cc1OC,2.02
5,O=C(c1ccc(N2C(=O)CCC2=O)cc1)N1CCOCC1,11.4
6,CCOc1ccc(N(C(=O)c2snc(C(N)=O)c2N)C(CC)C(=O)NC2CCCC2)cc1 (stereo not drawn),13.7
7,Cc1ccc2c(C)c(C(=O)N(Cc3ccncc3)CC3CCCO3)oc2c1C (stereo not drawn),-14.2
8,CCOC(=O)c1ccc(NC(=O)CN2CCN(C(=O)c3ccco3)CC2)cc1,-0.691
9,Cl.Fc1ccccc1CNCCC(Cc1ccccc1)c1ccc2c(c1)OCO2 (stereo not drawn),10.8
10,O=C(CSc1nnc(-c2ccncc2)n1Cc1ccco1)c1ccc(Cl)cc1,-13.8
11,Nn1c(SCc2cccc(C(F)(F)F)c2)nnc1-c1ccco1,7.98
12,Cc1cc(C(F)F)n2nc(C(=O)Nc3cccc(C(F)(F)F)c3)nc2n1,-7.29
13,O=C(N/N=C/C=C/c1ccco1)c1cccs1,1.38
14,COc1cc2ccccc2cc1C(=O)NC(=S)Nc1nnn(C)n1,12.8
15,Cc1cccc(CSc2nncc(=O)[nH]2)c1,11.9
16,CN1CCN(CC(=O)NC2CCCCC2)CC1.Cl,16.3
17,COCCn1c(=S)[nH]c2cc(C(=O)N3CCN(Cc4ccc5c(c4)OCO5)CC3)ccc2c1=O,-3.26
18,CCN(CC)S(=O)(=O)c1cc(C(=O)OCC(=O)Nc2cccc(Br)c2)ccc1F,16.5
19,CC(=O)Oc1ccc(N2C(=O)C3C4C=CC(CC4)C3C2=O)cc1[N+](=O)[O-] (stereo not drawn),7.49
20,COC(=O)c1[nH]c2cc(OC)ccc2c1NC(=O)CCN1CCN(c2ccccc2)CC1,-26.2
21,Cc1cc(C)c(-n2c(SCC(=O)N3CCOCC3)n[nH]c2=O)c(C)c1,19.1
22,CN1CCN(Cc2cc(=O)oc3ccc(Cl)cc23)CC1,8.31

row,Structure (SMILES),"hERG current change (%, negative = inhibition) at 1uM [%]"
1,C=CCNC(=O)N1CCCC(C(=O)c2cccc(Cl)c2)C1 (stereo not drawn),9
2,COc1ccc(C(=O)Nc2ccc(S(=O)(=O)NC(C)C)cc2)cc1,-6.15
3,CN(C)C(CNC(=O)CCNC(=O)c1ccc(Cl)cc1)c1ccco1 (stereo not drawn),0.689
4,N#Cc1c(/N=C/C=C/c2ccccc2)sc2c1CCCC2,-3.53
5,O=C(Cn1ccc2ccccc2c1=O)N1CCN(Cc2ccc3c(c2)OCO3)CC1,0.0311
6,Cc1cc(C(=O)NNC(=O)c2ccc(NC(=O)CC#N)cc2)c(C)o1,16.7
7,Cc1ccc(C(=O)NC(=C(Cl)Cl)S(=O)(=O)c2ccc(Cl)cc2)cc1,16.5
8,COc1nccnc1NS(=O)(=O)c1ccc(NC(=S)NC(=O)c2ccccc2F)cc1,5.05
9,Cc1ccc(NC(=O)c2ccccc2NC(=O)Cc2ccccc2)cc1,3.03
10,COc1c(F)cc2[nH]c3c(c2c1F)CCNC3=O,9.79
11,CCN(Cc1ccncc1)Cc1ccc(OC)cc1OC.O=C(O)C(=O)O,-4.15
12,CCCCn1c(=O)c(C(=O)c2ccccc2)nc2ccccc21,5.56
13,CCN(Cc1ccncc1)C(=O)c1cccc(S(=O)(=O)N2CCOCC2)c1,1.08
14,COc1cc(NC(=O)c2ccc(S(=O)(=O)N(C)C)cc2)cc(OC)c1OC,9.76
15,Cc1cc(=O)n(CCCc2ccccc2)[nH]1,8.75
16,Cc1ccc(C)c(CN2CCCN(C(=O)Cn3ncc4c3-c3ccccc3OC4)C2)c1,11.6
17,CCOc1cc(/C=N/NC(=O)CCn2nc(C)cc2C)ccc1O,14.5
18,CN1Cc2cc(C(=O)c3ccccc3O)cnc2NC1=O,2.97
19,Cc1nn(Cc2ccccc2)c(Cl)c1/C=C/C(=O)OC(C(=O)NC(N)=O)C(C)C (stereo not drawn),12.7
20,Cn1nnc(NC(=O)c2ccc(Br)o2)n1,18.2
21,O=C(Nc1cc(-c2nc3ncccc3o2)ccc1Cl)c1cccs1,-14.4
